Experimental data reported in article PMC12040169 (PLOS Biology, 2025).
This is one part of the list.

These compounds were tested on T1, C. trachomatis L2/434/Bu expressing GFP (CTL2-GFP). Conditions: total inclusion area; 28.5 h, 10 µM; inhibitor.
T1 construct: L2/434/Bu GFP intracellular growth in HeLa cells
Set-up: species or system HeLa; C. trachomatis total inclusion area by high-content imaging, normalised to DMSO
Outline: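 Host cell viability was gauged from Hoechst-stained nuclei counts, while chlamydial growth was taken from total inclusion area and inclusion number per well. Cells were fixed and imaged by high-content microscopy once bulk GFP and resorufin fluorescence had been measured.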
In the case of `O=C(O)COc1cccc(NC(=O)c2cc3ccccc3o2)c1` [CBK270071], the “% of control remaining” value is reported as 90.1752.
For `O=C(O)CCN1CCCC2(CCN(C(=O)c3ccoc3)C2)C1` (stereo not shown) [CBK137139], the “% of control remaining” value was 94.4576.
In the case of `Cc1ccc(C(=O)NCC(=O)O)cc1S(=O)(=O)N1CCOCC1` [CBK264534], the “% of control remaining” value is reported as 101.674.
For `Cc1cc2cc(CNCCCN3CCCC3=O)c(=O)[nH]c2cc1C` [CBK282296], the “% of control remaining” value was 90.5519.
With `Cc1ccc(S(=O)(=O)N(CC(=O)O)c2ccc(Cl)cc2)cc1` [CBK263767] the “% of control remaining” value was 89.359.
`COc1cnc(/C=C\c2ccccc2)c(NC(=O)c2cc(C)oc2C)n1` [CBK145222] was tested, and the “% of control remaining” value was 64.5218.
In the case of `Brc1ccc(-n2cc(-c3ccccc3)c3c(NCc4ccccn4)ncnc32)cc1` [CBK266427], the “% of control remaining” value is reported as 127.811.
With `COc1cccc(-c2coc3cc4oc(=O)c(CC(=O)O)c(C)c4cc23)c1` [CBK269520] the “% of control remaining” value was 83.9903.
`CCOc1ccc(CNc2sc3c(c2C(=O)Nc2ccc(OC)cc2)CCC3)cc1` [CBK294473] was tested, and the “% of control remaining” value was 103.339.
`COc1cc(-c2ccc3c(c2)COC2(CCCNC2)O3)cc(OC)c1OC` (stereo not shown) [CBK092299] was tested, and the “% of control remaining” value was 67.5675.
In the case of `O=C(O)c1ccccc1C(=O)N1CCN(c2ccc([N+](=O)[O-])cc2)CC1` [CBK287181], the “% of control remaining” value is reported as 102.167.
`O=C(Cc1ccccn1)N1CCCc2ccccc21` [CBK200343] was tested, and the “% of control remaining” value was 78.419.
In the case of `c1ccc2c(CNCCN3CCOCC3)cccc2c1` [CBK278156C], the “% of control remaining” value is reported as 77.2824.
In the case of `CCc1cc(Br)ccc1S(=O)(=O)NCc1cccc(F)c1` [CBK045114], the “% of control remaining” value is reported as 86.0955.
`O=C(CCc1ccccc1F)NC1CCc2nccn2C1` (stereo not shown) [CBK306124] was tested, and the “% of control remaining” value was 62.4429.
For `N#C/C(=C\c1ccc(-c2ccc(C(=O)O)c(O)c2)o1)c1nc2ccccc2[nH]1` [CBK262121], the “% of control remaining” value was 101.792.
For `COC(=O)c1sc(N2CCCC2)c(S(=O)(=O)C(C)C)c1N` [CBK009463], the “% of control remaining” value was 97.3808.
`CNc1nc(C(C)(C)C)cs1` [CBK025373] was tested, and the “% of control remaining” value was 74.2273.
`CC(=O)NCCc1nc2cc(NC(=O)c3cccc([N+](=O)[O-])c3)ccc2n1C` [CBK268478] was tested, and the “% of control remaining” value was 83.9506.
With `C[C@@H](c1ccccc1)n1c(=O)[nH]c2ncc(-c3cccc4ccccc34)nc21` [CBK064710] the “% of control remaining” value was 93.5787.
`Cc1c(Cl)ccc2c(C(=O)NCCCn3cc(Br)cn3)cc(-c3ccncc3)nc12` [CBK267731] was tested, and the “% of control remaining” value was 104.275.
With `COC(=O)c1ccccc1NC(=O)CNC(=O)c1ccc(Cl)cc1Cl` [CBK267860] the “% of control remaining” value was 81.2221.
